Among all 310,000 compounds or so, about 2,200 (0.71%) showed an effect of 50% or more. Effects have a minus sign here. The list shows a part of the results. Where a SMILES comes first, the peptide text is derived from it. The star is where a group is joined. Boc = CC(C)(C)OC(=O)*
target: human ether-à-go-go-related gene (hERG) potassium channel (human, UniProt Q12809); assay: primary screen, population patch clamp on CHO cells stably expressing hERG
Sequence (Q12809 whole entry, looked up): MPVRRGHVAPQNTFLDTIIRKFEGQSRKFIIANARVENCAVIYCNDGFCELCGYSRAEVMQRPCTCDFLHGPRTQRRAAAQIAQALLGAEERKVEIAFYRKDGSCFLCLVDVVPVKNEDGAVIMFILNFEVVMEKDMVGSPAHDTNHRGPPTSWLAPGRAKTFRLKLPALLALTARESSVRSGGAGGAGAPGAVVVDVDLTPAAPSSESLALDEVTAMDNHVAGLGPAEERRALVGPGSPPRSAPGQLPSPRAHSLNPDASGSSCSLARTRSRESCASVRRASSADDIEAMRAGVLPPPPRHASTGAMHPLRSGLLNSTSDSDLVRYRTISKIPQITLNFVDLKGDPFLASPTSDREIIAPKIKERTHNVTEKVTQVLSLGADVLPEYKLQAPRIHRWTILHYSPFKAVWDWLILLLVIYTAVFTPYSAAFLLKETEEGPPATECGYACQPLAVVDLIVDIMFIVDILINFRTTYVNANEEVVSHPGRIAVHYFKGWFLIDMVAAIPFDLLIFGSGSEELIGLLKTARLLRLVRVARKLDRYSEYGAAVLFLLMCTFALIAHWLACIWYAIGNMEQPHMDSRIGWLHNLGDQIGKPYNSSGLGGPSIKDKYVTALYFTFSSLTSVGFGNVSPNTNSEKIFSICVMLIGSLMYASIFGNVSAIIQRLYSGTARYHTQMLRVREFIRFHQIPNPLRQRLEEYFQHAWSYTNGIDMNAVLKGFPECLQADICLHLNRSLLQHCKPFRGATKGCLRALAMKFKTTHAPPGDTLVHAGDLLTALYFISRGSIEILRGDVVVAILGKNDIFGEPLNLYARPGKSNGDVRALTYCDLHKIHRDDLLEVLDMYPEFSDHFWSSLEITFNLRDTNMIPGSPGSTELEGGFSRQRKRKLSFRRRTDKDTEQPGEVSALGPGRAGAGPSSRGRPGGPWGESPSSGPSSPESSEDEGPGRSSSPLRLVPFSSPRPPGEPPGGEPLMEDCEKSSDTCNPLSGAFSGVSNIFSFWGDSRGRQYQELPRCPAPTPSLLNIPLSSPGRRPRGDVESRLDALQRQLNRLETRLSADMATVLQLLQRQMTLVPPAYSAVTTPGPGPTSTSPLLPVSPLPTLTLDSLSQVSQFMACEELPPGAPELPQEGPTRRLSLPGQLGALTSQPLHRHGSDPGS

SMILES | hERG current change (%, negative = inhibition) at 1uM
CCCCc1ccc(NC(=S)NCCO)cc1 | 7.16%
Cc1sc2nc(CSc3ccccc3)nc(N3CCOCC3)c2c1C | 9.62%
c1cc2c3c(cccc3c1)C(N1CCOCC1)=N2 | -0.83%
COc1ccccc1NC(=O)CN1CCN(CC(=O)Nc2ccc3c(c2)OCCO3)CC1 | -10.6%
CC1(C)OC(=O)C(=NNc2ccc(C(=O)O)cc2)C(=O)O1 | 15%
CC(C)(C)OC(=O)N1CCC(c2cc(-c3cccs3)n[nH]2)CC1 | 4.89%
O=c1[nH]c(=O)n(Cc2ccc(F)cc2)c(O)c1C=NCCCn1ccnc1 | 15.6%
O=C(CC1Oc2ccccc2NC1=O)NCCc1ccccc1 (stereo not shown) | -2.36%
CC(=O)c1ccc(OCc2cc(C(=O)N3CCN4CCCC4C3)no2)cc1 (stereo not shown) | 8.74%
O=C(CSc1ccc2c(c1)OCCO2)Nc1ncccc1O | 8.54%
CCOc1ccc(N=NC2C(=O)N(C(N)=S)N=C2C)cc1 (stereo not shown) | 13.1%
COc1ccccc1C(C#N)N1N=C(C)CC1(C)C (stereo not shown) | 13.8%
COc1ccccc1C1=NOC(C)(c2nnc(-c3cccc(Cl)c3)o2)C1 (stereo not shown) | 14%
CC1(c2ccc3ccccc3c2)NC(=O)N(CC(=O)O)C1=O (stereo not shown) | 0.814%
Cc1nc(NC(=O)c2ccc(Cl)cc2)sc1Cc1ccc2c(c1)OCO2 | 17.3%
Nc1nc(CN2CCN(C(=O)c3ccco3)CC2)nc(Nc2cccc(Cl)c2)n1 | -76.3%
CC1CCCN(CCC(=O)Nc2ccc3c(c2)CCC3)C1.Cl (stereo not shown) | -8.9%
c1ccc(-n2c(Cc3cn4ccsc4n3)nnc2N2CCOCC2)cc1 | 10.5%
Cc1cc(C)cc(NC(=O)c2cc(S(=O)(=O)N3CCCC3)cn2C)c1 | 7.36%
CCC(Cc1ccccc1)NC(=O)CCNS(=O)(=O)c1cc(Br)cnc1N (stereo not shown) | 5.66%

SMILES | hERG current change (%, negative = inhibition) at 1uM
CCN(Cc1ccccc1)C(=O)c1oc2ccc(C)cc2c1C | 11.9%
CCOn1c(=O)c(-c2ccccc2)[n+]([O-])c2ccccc21 | 6.02%
CCN1C(=O)NC(c2cc(Br)ccc2OC)C(C(=O)OC)=C1C (stereo not shown) | 5%
Cc1ccc(NC(=O)c2scc3c2CCCC3)cc1 | 7.37%
COc1ccc(OC)c(NC(=O)c2cc(S(=O)(=O)N3CCCC3)cn2C)c1 | -11.6%
COC(=O)c1ccc2c(=O)n(-c3ccc(OC)cc3)c(=S)[nH]c2c1 | 13.6%
Cc1cc2oc(=O)cc(Cn3ccnc3)c2cc1C | 1.33%
CCCCCCCNC(=O)C1(CC2CC(c3cccc(Br)c3)=NO2)CCN(C(=O)C2(C)CC2)CC1 (stereo not shown) | 2.51%
Cc1ccc(Cl)cc1N1CCN(S(=O)(=O)c2ccc3[nH]c(=O)ccc3c2)CC1 | 8.35%
O=C(NC(=O)N1CCCCC1)c1ccccc1 | 8.26%
Cc1cccc(NC(=O)CCOc2ccccc2)c1 | 14.2%
FC(F)(F)c1ccccc1-n1c(-c2cnccn2)n[nH]c1=S | 9.65%
O=C(COC(=O)COc1ccccc1)NC1CCCC1 | 9.76%
Cc1ccc(C(=O)OCN2C(=O)c3ccccc3C2=O)cc1S(=O)(=O)N1CCOCC1 | 14.4%
COc1ccc(CC(=O)Nc2ccc(-c3cn4ccc(C)cc4n3)cc2)cc1 | 4.26%
O=C(Nc1ccc(S(=O)(=O)N2CCOCC2)cc1)c1cccc([N+](=O)[O-])c1 | 15.5%
CNC(=O)COc1ncnc2sc(C)c(C)c12 | -1.68%
O=C(CCN1C(=O)/C(=C/c2cccs2)SC1=S)Nc1ccc(C(=O)O)cc1 | 11.8%
CCC(c1nnnn1C1CCCC1)N1CCN(c2ccccc2F)CC1 (stereo not shown) | -2.45%
N/C(=N\OC(=O)c1ccc(Cl)c(Cl)c1)c1ccccn1 | 8.65%

SMILES | hERG current change (%, negative = inhibition) at 1uM
CC(C)C1Oc2ccccc2N(CC(=O)NC2CCCCC2)C1=O (stereo not shown) | 7.66%
COc1cccc(N=Cc2nc(-c3ccccc3)oc2OC(C)=O)c1 | 3.92%
O=C(CSc1nnnn1-c1ccc(O)cc1)c1ccc(F)cc1 | 4.3%
Cc1ccc(C(=O)N/C(=C\c2ccccc2F)c2nc(=S)[nH][nH]2)cc1 | 10.1%
COc1ccc(S(=O)(=O)N(CCCN2CCOCC2)Cc2cccc3ccccc23)cc1 | 7.17%
Cc1ccccc1C(=O)Nc1nnc(-c2ccco2)s1 | 10.1%
COc1ccccc1NC(=O)Nc1nc(CC(=O)Nc2ccc(N(C)C)cc2)cs1 | 7.82%
CCN1CCN(C(=O)C(C)Nc2ccc(OC)cc2OC)CC1 (stereo not shown) | 0.55%
C[C@@H]1C(=O)O[C@@H]2[C@H](O)C34[C@H]5C[C@@H](C(C)(C)C)C36[C@H](OC(=O)[C@@H]6O)OC4(C(=O)O5)[C@@]12O (stereo partly shown) | 10.8%
COc1ccc(-n2ncc(C(C)NS(=O)(=O)c3cc(F)ccc3C)c2C)cc1 (stereo not shown) | -31.6%
CC(C)CC(NC(=O)C(NC(=O)OC(C)(C)C)C(C)C)C(N)=O (stereo not drawn) (Boc-Val-Leu-NH2; configuration not given here) | 4%
COc1cccc(NC(=O)c2ccc(CN3CCN(c4ccccc4)CC3)cc2)c1 | -23.1%
NC(=O)[C@@H]1CCCN1Cc1nc(-c2ccc(C(F)(F)F)cc2)no1 | 8.63%
O=C(NCc1ccco1)NC1CCCCC1 | 5.72%
CCOc1ccc(N=CNc2ccc(OCC)cc2)cc1 | 13.2%
Fc1cccc(CCN2C(=S)NC[C@@H]2CC2CCCCC2)c1 | 8.53%
Cc1ccc(C(=O)N(C)CC(=O)Nc2ccc(F)c(F)c2F)o1 | 11.7%
O=C(CN(CC1CCCO1)C(=O)CNS(=O)(=O)c1ccc(F)cc1)NCc1ccco1 (stereo not shown) | 13.5%

Reference: PMC4336329 (PLoS ONE, 2015)
